Target: T1, human VEGF165 (human, UniProt P15692-4 27-191)
T1 construct: Only named as the VEGF component of the VEGF:aflibercept complex measured by ELISA in plasma
T1 sequence (looked up): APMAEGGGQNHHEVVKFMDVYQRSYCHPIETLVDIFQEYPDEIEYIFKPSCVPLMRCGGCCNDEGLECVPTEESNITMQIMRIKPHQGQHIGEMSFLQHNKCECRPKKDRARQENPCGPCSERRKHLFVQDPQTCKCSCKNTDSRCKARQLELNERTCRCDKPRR
Assay: ELISA of the VEGF:aflibercept complex in plasma of treated participants (PK assay)

binding result: binds
B1: aflibercept (Fc fusion)
chain: SDTGRPFVEMYSEIPEIIHMTEGRELVIPCRVTSPNITVTLKKFPLDTLIPDGKRIIWDSRKGFIISNATYKEIGLLTCEATVNGHLYKTNYLTHRQTNTIIDVVLSPSHGIELSVGEKLVLNCTARTELNVGIDFNWEYPSSKHQHKKLVNRDLKTQSGSEMKKFLSTLTIDGVTRSDQGLYTCAASSGLMTKKNSTFVRVHEK[in this place human IgG1 Fc]
notes: also called VEGF Trap; VEGF1R2-FcΔC1(a)
